From the BET-seq Pho4 binding data (Le et al. 2018)
The other results are listed elsewhere or left out. Values were computed here from the reads of four pooled replicates and scatter widely.

biological target: T1, Pho4 (S. cerevisiae) (UniProt P07270); experiment: relative binding free energy (BET-seq); higher = weaker binding; conditions: reference: library average
T1 sequence: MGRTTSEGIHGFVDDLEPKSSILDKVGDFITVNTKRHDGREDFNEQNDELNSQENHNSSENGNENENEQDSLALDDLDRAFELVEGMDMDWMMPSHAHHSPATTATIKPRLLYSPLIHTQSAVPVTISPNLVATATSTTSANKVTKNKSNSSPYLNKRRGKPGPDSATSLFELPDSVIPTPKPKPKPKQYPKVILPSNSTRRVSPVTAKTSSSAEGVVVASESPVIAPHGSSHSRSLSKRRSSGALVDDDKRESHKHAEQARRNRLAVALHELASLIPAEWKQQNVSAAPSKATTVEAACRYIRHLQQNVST

Sequence | relative binding free energy [kcal/mol]
ACCGACACGTGGGGGG | -0.19
TGTGGCACGTGAGTCA | 0.09
GATGACACGTGGATTT | 0.14
GTAGGCACGTGGATGT | -0.01
CTGGTCACGTGGGCCG | -0.12
ATTCACACGTGGATGG | 0.14
GGCTGCACGTGGGGAT | -0.02
ACGATCACGTGAGGTT | 0.26
GTTTGCACGTGTGTCG | 0
TAAGCCACGTGGGTAG | -0.14
TTAAGCACGTGATAAG | -0.02
GTCTACACGTGGGAAT | 0.28
TCGTGCACGTGAAGTG | 0.01
TCAGGCACGTGAAGGG | 0.07
AGGTACACGTGCTGTG | -0.04
GATATCACGTGTCGGT | 0.23
TGATCCACGTGTAGGG | -0.03
TTAAGCACGTGTTGCT | -0.04
CTGGTCACGTGGCGTG | 0.04
TGTGGCACGTGGCTGC | -0.19
GGTTTCACGTGGTACT | 0.17
TAGGGCACGTGGAAGC | -0.09
CTCGTCACGTGTGATT | 0.34

Sequence | relative binding free energy [kcal/mol]
AGAGTCACGTGGGAGT | -0.01
AGACGCACGTGTAGTT | 0.07
CAGTTCACGTGTGGAG | 0.22
AAGAACACGTGTAGGG | 0.06
TAAGGCACGTGCATAG | -0.11
AGCGCCACGTGGAGGG | -0.09
TTGAACACGTGGGGCC | -0.06
GTCGTCACGTGTAATG | 0.01
GTATTCACGTGAGAGA | 0.31
ATGGTCACGTGCTTGC | 0.13
GGTAACACGTGCGGGT | 0.07
TAGGGCACGTGGTTGG | -0.1
CTTTGCACGTGTTAGT | 0.01
TCAGGCACGTGGGATA | -0.16
ATAGACACGTGGGATG | -0.11
AGGGGCACGTGTTTAT | -0.1
GAGATCACGTGAGTGG | 0.38
CAAGTCACGTGTTATG | 0.12
ATAAGCACGTGGTAGA | -0.08
CGGTGCACGTGTTTGA | 0.01
AAAGTCACGTGATGGA | 0.33
TTTGACACGTGGTGCG | -0.17
GGTCGCACGTGTGTGG | 0.04

Sequence | relative binding free energy [kcal/mol]
TGTTTCACGTGGTCTT | 0.21
GTAAGCACGTGTGTTA | 0.04
TTAAACACGTGAGGTG | 0.18
CGGGGCACGTGCGTGG | -0.17
TATTACACGTGTGAGG | 0.12
CTGTTCACGTGCGTGA | 0.19
AGATCCACGTGGTGTG | -0.1
TGCGGCACGTGGCTTG | -0.13
GGTCGCACGTGAGGTT | 0.31
CTGGGCACGTGTAGAG | -0.26
TAAGGCACGTGGGCTG | -0.28
TGCATCACGTGGGGGG | -0.02
TTTCACACGTGTGTTT | 0.08
CGTGGCACGTGTTCGT | -0.21
GGACACACGTGTTGGG | -0.13
TAGGGCACGTGTGTGA | -0.16
TAATTCACGTGCGGTT | 0.32
GAGCTCACGTGGTGTG | 0.15
AAATTCACGTGGTATA | 0.17
GGGTGCACGTGAGCTT | 0.16
ACTTGCACGTGCTGTG | -0.06
ACAGGCACGTGTGGTT | -0.06
GGTAACACGTGGGCAT | -0.17

Sequence | relative binding free energy [kcal/mol]
GGATTCACGTGGTTAA | 0.2
ACGGTCACGTGGGTTG | -0.08
CGTATCACGTGGTGTG | 0.1
AGGAGCACGTGAGTGC | 0.11
TTTCTCACGTGTGTCG | 0.27
TGGCACACGTGAGGAG | 0.18
TTATTCACGTGATTTA | 0.28
TCAGGCACGTGCGTGG | -0.33
GGTTTCACGTGTGAAT | 0.37
GGTCGCACGTGAATGT | 0.3
GTTAACACGTGTAGCG | 0.07
TCATTCACGTGGGGGC | 0.1
GTGATCACGTGAATAG | 0.37
TCTATCACGTGGATTT | 0.14
AATGGCACGTGTGTTG | -0.1
GGGGTCACGTGGCGCT | 0.03
GCTGTCACGTGAAAGG | 0.5
AGTAACACGTGGTATT | -0.09
CGGAGCACGTGGTGGG | -0.1
GGATTCACGTGTGGGC | 0.28
TGGTCCACGTGGTGAC | 0.16
GCTGTCACGTGAGATG | 0.37
TTCGCCACGTGGTGTT | -0.24

Sequence | relative binding free energy [kcal/mol]
AATGTCACGTGCAAGG | 0.18
GTCTACACGTGCTTGG | 0.31
CGCAGCACGTGTTGTG | -0.08
TGAGTCACGTGTTGTA | 0.15
GTTTACACGTGAGGTT | 0.41
TGTTGCACGTGTACGG | -0.11
ATGTACACGTGGTTGT | -0.07
GGGTGCACGTGTTAAA | 0.1
TGCTTCACGTGCGAGG | 0.3
TAACTCACGTGTAGTT | 0.28
CGTTACACGTGGATGG | 0.13
ATGAACACGTGTGTTA | -0.01
TGGGACACGTGGACTA | 0.1
CGGTGCACGTGTTTTA | -0.16
TGCGGCACGTGACGGT | 0.07
CCGGGCACGTGGAGGT | -0.19
GGTAGCACGTGTGGTT | 0.02
TGTGACACGTGGTAAT | 0.02
TTGGACACGTGATCGT | -0.06
CGGGTCACGTGGATAG | 0.08
AGGTGCACGTGTGGTA | -0.02
GTAGTCACGTGCTGTG | 0.09
ATGCTCACGTGCTTGT | 0.15
